# Assay results published in PubChem BioAssay AID1345083 (National Center for Advancing Translational Sciences (NCATS), 2018).
# In all, about 94,000 compounds went through this assay and about 6,200 (6.6%) were called active. Inconclusive means that the source gave no clear call. Such entries were picked first, then a sample of the others. Calls come from the whole dose curve; as a rule, active = well fitted inhibition curve with a large enough effect; inconclusive = small, poorly fitted or top-dose-only effect; inactive = flat fitted curve, though single readings scatter. Where the call is inconclusive, the potency comes from a doubtful curve fit.
# Assay: Cytotoxic Profiling in HEK 293 Cell Line of Diverse Libraries Using Quantitative High-Throughput Screening; note: nearly all actives have a fitted effect of over 60% in size
# Settings: HEK 293 viability, ATP luminescence (CellTiter-Glo), 48-72 h; activity change, negative = cytotoxicity: at 115 µM (top of the series) unless noted; series mostly up to 115 µM
# How it was run: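 HEK 293 cells at 250 cells/well were exposed to compounds by pintool transfer for 48 or 72 hr at 37 degree Celsius, 5% CO2. Viability was read as ATP-coupled luminescence with CellTiter-Glo after 10 min at room temperature.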
# % is set by controls: 0 for no effect and ±100 for the full control effect; potency is the fitted concentration of half-maximal effect; tags give direction and shape of the fitted curve.
SMILES,Potency,"activity change, negative = cytotoxicity",outcome
COc1ccc(-c2noc([C@@H]3CCCN3C(=O)c3ccc(Cl)cc3OC)n2)cc1,"inconclusive: 50.1 µM [inhibitor, partial curve, poor fit]",,
Cc1ccc(C(=O)N2CCCC3(C2)NC(=O)N(Cc2ccccc2)C3=O)cc1 (configuration not stated),"inconclusive: 79.4 µM [inhibitor, single point]",,
Cc1ccc(-c2ccccc2CN2CCN(C(=O)c3ccc(C(F)(F)F)cc3)CC2)cc1Cl,"inconclusive: 50.1 µM [inhibitor, partial curve, poor fit]",,
CC(=O)N[C@H]1CO[C@H]2[C@@H]1OC[C@@H]2Nc1nccc(C2CCCC2)n1,"inconclusive: 56.2 µM [inhibitor, partial curve, poor fit]",,
O=C(NC1CCCCCCC1)c1nnn2c1COC(c1ccc(F)cc1)C2 (configuration not stated),"inconclusive: 12.6 µM [inhibitor, full curve, poor fit]",,
COc1ccccc1-c1nnc2ccc(C(=O)NCC3CC3)cn12,,inactive: 2.78% [at 172 µM],
COc1ccc(CN2CCOC[C@H](Oc3ccc(C(F)(F)F)cn3)C2)cc1,"inconclusive: 100 µM [inhibitor, partial curve, poor fit]",,
O=C(c1csc(Cc2ccccc2)n1)N1CCC2(CCCNC2)C1 (configuration not stated),,inactive: -6.73%,
C#CCNC(=O)[C@@H]1Cc2cn(Cc3ccncc3)c3cccc(c23)[C@H](CC(C)C)N1,active: 44.7 µM,,
O=C(NCCC1CCN(C(=O)Nc2cc(F)cc(F)c2)CC1)c1cccs1,"inconclusive: 89.1 µM [inhibitor, single point]",,
CCOc1ccccc1C(=O)N1CCN(C(=O)c2nnn3c2COC(c2ccccc2)C3)CC1 (configuration not stated),"inconclusive: 56.2 µM [inhibitor, partial curve, poor fit]",,
CC1CCN(C(=O)C[C@@H]2c3nc(NC(=O)c4cccc(F)c4)sc3C[C@@H]3[C@](C)(CO)[C@H](O)CC[C@]32C)CC1,"inconclusive: 79.4 µM [inhibitor, partial curve]",,
CSCC(=O)N1CC[C@H](NC(=O)Nc2cccc(SC)c2)[C@H]1C(=O)N[C@H](Cc1ccccc1)C(N)=O,,inactive: -10.8%,
CC1(NC(=O)C2CC2)CN(Cc2nc(-c3cccc(N4CCOCC4)c3)cs2)C1,"inconclusive: 112 µM [inhibitor, partial curve]",,
N#Cc1ccc(CN2CCN(c3nccc(Cl)n3)C(=O)C2)cc1,"inconclusive: 126 µM [inhibitor, single point]",,
Cc1nn(-c2ccccc2)c2c1C(C(C)C)N(C1CCN(C(=O)Nc3ccc(Cl)cc3)CC1)C2=O (configuration not stated),"inconclusive: 35.5 µM [inhibitor, partial curve]",,
O=C(NCC1CCN(c2cc(-c3ccc(F)cc3)[nH]n2)CC1)c1ccc[nH]1,"inconclusive: 50.1 µM [inhibitor, partial curve, poor fit]",,
CNc1nc2c(c(C(=O)N3CCCC3)n1)CN(CCC(C)c1ccc(C)o1)CC2 (configuration not stated),,inactive: -8.79%,
Cc1cc(C)c(S(=O)(=O)N2CC(c3nc(-c4ccncc4)no3)C2)cc1C,"inconclusive: 44.7 µM [inhibitor, partial curve, poor fit]",,
Cc1nc(-c2ccc(CN3CCCC(CN)C3)cc2)[nH]c(=O)c1C (configuration not stated),,inactive: -15.1%,
C=CCNC(=O)N[C@H]1[C@H](O)[C@@H](N2CCC(Cc3ccccc3)CC2)[C@@H]2OC[C@H]1O2,"inconclusive: 112 µM [inhibitor, partial curve, poor fit]",,

SMILES,Potency,"activity change, negative = cytotoxicity",outcome
CN(C)c1ccc(CN2CCNc3cc(-c4ccccc4)ncc3C2)cc1,"inconclusive: 63.1 µM [inhibitor, full curve, poor fit]",,
Brc1ccc(-c2ccnc3nc(-c4cccs4)nn23)s1,,inactive: -23.5%,
Cc1ccc(NC(=O)N2C[C@@H](F)C[C@H]2C(=O)N2CCCCC2)cc1F,,inactive: -0.642%,
Cc1nc(C)n(CCCn2ccnc2-c2cc3n(n2)CCCNC3)n1,,inactive: 0.361%,
CN(CCc1ccccn1)[C@@H]1[C@H](O)[C@H](CO)O[C@@H]1CNC(=O)c1ccc(C(F)(F)F)cc1,,inactive: -1.14%,
CCCCCCN(CCC(=O)NC(C)C)C(=O)c1ccoc1,"inconclusive: 89.1 µM [inhibitor, single point]",,
CNC(=O)c1cc(-c2ccccc2C)cc2c1OCCN2Cc1cccnc1,"inconclusive: 89.1 µM [inhibitor, partial curve, poor fit]",,
Cc1cccc(-c2cccc(CN3CCC(NC(=O)c4ccncc4)CC3)c2)c1,active: 31.6 µM,,
O=C(Nc1ccc(Cl)cc1)N1CCCC(C(=O)N2CCC(c3nc4ncccc4[nH]3)C2)C1 (configuration not stated),,inactive: -27.4%,
O=C1NCCCCCN(C(=O)c2ccoc2)[C@H]2CCCC[C@@H]12,,inactive: -1.96%,
O=C(NCc1c[nH]c2ncccc12)c1cncc(Br)c1,inactive,,
O=C(NCC1CC1)c1ccc2oc(-c3ccccn3)nc2c1,"inconclusive: 112 µM [inhibitor, partial curve, poor fit]",,
C[C@]1(CO)C2CC[C@@H](O)[C@@H](CC(=O)N3CCC[C@H]3CO)[C@]2(C)CC[C@H]1OC(=O)Nc1cccc(C(F)(F)F)c1 (some centres not stated),"inconclusive: 50.1 µM [inhibitor, partial curve, poor fit]",,
O=c1c2nc(-c3ccc(Cl)cc3)ccc2ncn1Cc1ccccn1,"inconclusive: 79.4 µM [inhibitor, partial curve, poor fit]",,
Cc1cnc(CC2CCN(C(=O)C3COc4ccccc4O3)CC2)n1Cc1ccc(F)cc1 (configuration not stated),"inconclusive: 56.2 µM [inhibitor, partial curve, poor fit]",,
C[C@@H](NC(=O)C1=C[C@@H](NS(=O)(=O)c2cccc(C(F)(F)F)c2)[C@@H](O)[C@H](O)C1)C(N)=O,,,inactive
O=C(NC1CCCc2c1[nH]c1ccc(F)cc21)C1(c2ccccc2)CCOCC1 (configuration not stated),"inconclusive: 56.2 µM [inhibitor, partial curve, poor fit]",,
COc1ccc(CCNC(=O)c2ccc3c(c2)N(C)C2CCCCN2C3=O)cc1OC (configuration not stated),"inconclusive: 50.1 µM [inhibitor, partial curve, poor fit]",,
O=C1c2cnc(-c3cc(F)cc(F)c3)nc2OCCN1Cc1ccccc1,"inconclusive: 63.1 µM [inhibitor, full curve, poor fit]",,
COc1ccc(C(=O)N2CCC(n3cc(-c4nc(-c5ccccc5)no4)nn3)C2)cc1 (configuration not stated),"inconclusive: 56.2 µM [inhibitor, partial curve, poor fit]",,
COc1ccccc1N1CCN(C(=O)c2nnn3cc(-c4ccc(F)cc4)[nH]c(=O)c23)CC1,"inconclusive: 89.1 µM [inhibitor, single point]",,

SMILES,Potency,"activity change, negative = cytotoxicity",outcome
CC(C)c1ccc(CC(=O)N2CCCc3ncc(C(=O)NCc4cccc(Cl)c4)cc32)cc1,"inconclusive: 44.7 µM [inhibitor, partial curve, poor fit]",,
CC(C)(C)C(=O)NCCNC(=O)c1cccc(-c2ccsc2)c1,"inconclusive: 112 µM [inhibitor, partial curve, poor fit]",,
COc1ccc(-c2ccc(C(=O)NCc3ccc(F)cc3F)c(Cl)c2)nn1,"inconclusive: 50.1 µM [inhibitor, partial curve, poor fit]",,
Cc1cccc(CN2CCCC23Cc2ccccc2CNC3=O)c1 (configuration not stated),"inconclusive: 89.1 µM [inhibitor, partial curve]",,
O=C(NCc1cccc(F)c1)c1c[nH]c2ncccc12,"inconclusive: 126 µM [inhibitor, single point]",,
CCCCn1c(=O)c(C(=O)NCCc2ccccc2)nc2cccnc21,active: 44.7 µM,,
COc1ccc(CNC(=O)c2cc3c(s2)CN(C2CC2)C3)cc1OC,"inconclusive: 89.1 µM [inhibitor, single point]",,
COc1ccc(NC(=O)[C@@H]2C[C@@H](c3ccc(F)cc3)N(Cc3ccccc3)C2)cc1OC,,inactive: -19.4% [at 172 µM],
COCc1nnc2n1CCC(NC(=O)CCc1nc3ccccc3s1)CC2 (configuration not stated),,inactive: -15%,
Cc1cc(C)cc(C(=O)N2CCCN(S(C)(=O)=O)c3ccccc32)c1,"inconclusive: 100 µM [inhibitor, single point]",,
OCc1cc2n(n1)CCCN(Cc1cnc(SCc3ccccc3)nc1)C2,"inconclusive: 35.5 µM [inhibitor, partial curve, poor fit]",,
O=S(=O)(c1cnc[nH]1)N1CCC(c2nc(-c3ccccc3)no2)C1 (configuration not stated),"inconclusive: 28.2 µM [inhibitor, partial curve, poor fit]",,
O=C(c1ccn[nH]1)N1CCC(c2nc(CCOCC3CC3)no2)C1 (configuration not stated),,inactive: 4.79%,
O=[S+]([O-])(NCC1CN(Cc2ccc3c(c2)CCO3)CC12CN(c1ccccc1)C2)c1ccccc1 (configuration not stated),"inconclusive: 79.4 µM [inhibitor, partial curve, poor fit]",,
Cc1nc2c(c(N3CCCC(COc4cccc(F)c4)C3)n1)CCNCC2 (configuration not stated),active: 22.4 µM,,
COc1ccccc1CNC(=O)C1CCN(C(=O)c2ccc(-c3cncnc3)cc2)CC1,"inconclusive: 89.1 µM [inhibitor, single point]",,
CC(C)C(=O)N1CCC2(CC1)CC(N(Cc1ccccc1)C1CC1)CCO2 (configuration not stated),"inconclusive: 50.1 µM [inhibitor, partial curve, poor fit]",,
Cc1nn2c(c1-c1ccccc1C(C)C)N(Cc1ccc3c(c1)CCO3)CCC2,active: 35.5 µM,,
COc1ccc(CC(=O)N2CCC(n3c(=O)[nH]c4ccccc43)CC2)cc1,"inconclusive: 50.1 µM [inhibitor, partial curve, poor fit]",,
CC(C)CCN1CCOc2cc(C(=O)Nc3ccc4cn[nH]c4c3)ccc2C1,active: 89.1 µM,,
